Measurements taken from PubChem BioAssay AID686979 (National Center for Advancing Translational Sciences (NCATS), 2013).
The campaign covered roughly 420,000 compounds. About 50,000 (12%) were called active. The inconclusive results got no clear call from the source; some entries with a clear call stand among them for comparison. Calls follow the shape of the dose curve; as a rule, active = well fitted inhibition curve with a large enough effect; inconclusive = small, poorly fitted or top-dose-only effect; inactive = flat fitted curve, though single readings scatter. No potency is given beside an inconclusive call; the fits are too rough.

test: qHTS for Inhibitors of human tyrosyl-DNA phosphodiesterase 1 (TDP1): qHTS in cells in presence of CPT; conditions: chicken DT40 Tdp1-/-;hTDP1 cells + 20 nM CPT, ATP luminescence, 48 h; activity change, negative = growth inhibition: at 46.2 µM (top of the series) unless noted; also: nearly all actives have a fitted effect of over 55% in size
In short: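 Cell growth measured by CellTiter-Glo luminescence after a minimum 48 h, 37 C compound exposure with 20 nM CPT in Tdp1-knockout DT40 cells stably expressing hTDP1, seeded 400/well; qHTS titration format.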
% is scaled to controls: 0 for no effect and ±100 for the full control effect; potency is read from the fitted curve at half-maximal effect; tags tell the direction and shape of the fitted curve.

Structure (SMILES) | Potency | activity change, negative = growth inhibition
COc1ccc(C(=O)OCC(=O)NC(C)CCc2ccccc2)c(OC)c1 (centres undefined) | inactive | –
COCCNC(C(=O)Nc1cc(Cl)cc(Cl)c1)c1ccccc1 (centres undefined) | inconclusive [inhibitor, single point] | –
Cc1ccc(NS(=O)(=O)c2ccc(CCC(=O)N3CCCC3)cc2)cc1 | inconclusive [inhibitor, single point] | –
COc1ccc(CNC(=O)CN2N=C(c3ccc(Cl)cc3)CCC2=O)cc1 | inconclusive [inhibitor, single point] | –
COc1ccccc1CCNC(=O)c1cnn2c(C(F)F)cc(C)nc12 | active: 20.6 µM | –
CCOC(=O)C1(CCOc2ccccc2)CCN(Cc2cnc(C)s2)CC1 | inconclusive [inhibitor, single point] | –
CCC/C=C/c1ccc(CN2C(CC(C)C)C(=O)N(Cc3cn(CCC4OCCO4)nn3)CCS2(=O)=O)cc1 (centres undefined) | inconclusive [inhibitor, single point] | –
CSc1ccc(OC2(C)CCN(Cc3ccc(C(C)C)cc3)C2)cc1 (centres undefined) | inconclusive [inhibitor, single point] | –
CCC1Nc2ncnc(N3CCc4ccccc4C3)c2N(Cc2ccc(Cl)cc2)C1=O (centres undefined) | active: 20.6 µM | –
O=C(NCc1ccco1)C1CCN(c2nc3ccccc3n2Cc2ccc(F)cc2)CC1 | inconclusive [inhibitor, single point] | –
O=C(Nc1cccc(S(=O)(=O)NC2=NCCC2)c1)c1ccc(C(F)(F)F)cc1 | – | inconclusive: -30.7% [inhibitor]
CCCN1C(=O)C(=O)N(CC(=O)c2cc(C)n(C3CC3)c2C)C1=O | inconclusive [inhibitor, single point] | –
CC1(C)CC2CC(C)(CN2C(=S)Nc2ccccc2)C1 (centres undefined) | inconclusive [inhibitor, single point] | –
COc1cccc(NC(=O)C2CCCN(c3ncnc4onc(-c5ccc(F)cc5)c34)C2)c1 (centres undefined) | inconclusive [inhibitor, single point] | –
C=C(C)CN(CC)C(=O)c1ccc(OC2CCN(S(=O)(=O)N(C)C)CC2)cc1 | inconclusive [inhibitor, single point] | –
CCOc1ccccc1C(=O)NCC(=O)NNC(=O)CN(C)S(=O)(=O)c1ccc(Cl)cc1 | active: 20.6 µM | –
Cc1ccc(S(=O)(=O)NCCC(=O)NC2CCN(Cc3ccccc3)CC2)cc1 | inactive | –
CC(=O)N1CCN(C(=O)CCc2nc3ccccc3c(=O)[nH]2)CC1 | inconclusive [inhibitor, full curve, poor fit] | –
CC(C)(C)n1nnnc1C(c1ccccc1)N1CCCN(Cc2ccc(F)cc2)CC1 (centres undefined) | inconclusive [inhibitor, single point] | –
COc1ccc(C(O)(CCC(C)C)C(CN2CCOCC2)c2ccccc2)cc1 (centres undefined) | active: 23.1 µM | –
COc1ccc(C(=O)CC2(O)C(=O)N(Cc3ccccc3)c3ccc(Br)cc32)cc1 (centres undefined) | inconclusive [inhibitor, single point] | –
Cc1cccc(C(=O)N/N=C/c2ccc(OC3CSC3)cc2)c1 | inconclusive [inhibitor, full curve, poor fit] | –
CCN(CC)CCOCCn1c(C)ccc1C | inconclusive [inhibitor, single point] | –

Structure (SMILES) | Potency | activity change, negative = growth inhibition
COc1nccnc1NS(=O)(=O)c1ccc(NC(=S)NC(=O)/C=C/c2ccc(F)cc2)cc1 | inconclusive [inhibitor, partial curve] | –
CCc1ccc(C(=O)c2cn(CC(=O)NCCc3ccccc3)c3nc(C)ccc3c2=O)cc1 | inconclusive [inhibitor, single point] | –
CN(c1ccc(C(=O)N2CCN(Cc3ccccc3)CC2)cc1)S(=O)(=O)c1ccc(Cl)cc1 | inconclusive [inhibitor, single point] | –
O=C(/C=C/c1ccc(O)cc1)c1ccc(NC2=C(N3CCCCC3)C(=O)c3ccccc3C2=O)cc1 | active: 1.3 µM | –
Cc1ccc2[nH]c3c(c2c1)CN(C(=O)CN1CC(C)OC(C)C1)CC3 (centres undefined) | inactive | –
CCCCC(CC)CNC(=O)CN(C)S(=O)(=O)c1cccc2nsnc12 (centres undefined) | inconclusive [inhibitor, single point] | –
COCCNC(=S)N1CCc2cc(OC)c(OC)cc2C1c1cccs1 (centres undefined) | inactive | –
COc1ccc(Cn2c(SCc3ccc(C(=O)NCc4ccc(C)cc4)cc3)nc3cccnc32)cc1 | inconclusive [inhibitor, partial curve] | –
COc1ccc(S(=O)(=O)N2CCC(c3cc(-c4cccc5ccccc45)n[nH]3)CC2)cc1 | inconclusive [inhibitor, single point] | –
CCOC(=O)c1c(C)c(C(=O)OCC)n(C)c1C | inactive | –
O=C1C(Cc2ccccc2)Nc2ncnc(N3CCN(c4ccccc4)CC3)c2N1Cc1ccc(Br)cc1 (centres undefined) | inconclusive [inhibitor, single point] | –
CCOC(=O)c1cccc(NC(=O)CSc2nc3ccccc3c(=O)n2CC)c1 | inactive | –
O=C(O)Cn1c(O)c(C2=c3ccccc3=NC2=O)sc1=O | inconclusive [inhibitor, single point] | –
COc1cc(OC)c2c(C)cc(=O)oc2c1C(CCN1CCOCC1)c1ccc(N(C)C)cc1 (centres undefined) | active: 5.17 µM | –
O=C(NC(=S)NCCN1CCOCC1)c1ccc(Cl)cc1Cl | inactive | –
CCCOc1ccc(S(=O)(=O)n2cc(F)c(=O)[nH]c2=O)cc1 | inconclusive [inhibitor, single point] | –
O=C(NCCSc1c[nH]c2ccccc12)c1ccc(Cl)cc1 | inconclusive [inhibitor, single point] | –
CC1(C(=O)Nc2ccc(Cl)c(C(F)(F)F)c2)Cc2c(-c3cccc(C(N)=O)c3)ccnc2O1 (centres undefined) | active: 10.3 µM | –
C#Cc1ccc(C(=O)Nc2ccc(N3CCC(C)CC3)c(C(N)=O)c2)cc1 | inconclusive [inhibitor, partial curve] | –
CCCC1CCc2c(sc(NC(=O)OCC)c2C#N)C1 (centres undefined) | active: 14.6 µM | –
O=C(NCc1ccc(Cl)cc1)C1CCN(S(=O)(=O)N2CCOCC2)CC1 | inactive | –
CCN(CC)S(=O)(=O)c1cccc(NC(=O)CCNC(=O)c2ccc([N+](=O)[O-])cc2)c1 | inconclusive [inhibitor, single point] | –
CCN(c1ccccc1C)S(=O)(=O)c1nnc(NC(=O)c2ccc(OC)c(OC)c2)s1 | inactive | –

Structure (SMILES) | Potency | activity change, negative = growth inhibition
Cc1ccc(C2=Nc3ccccc3N=C(c3ccc(F)cc3)C2)c(O)c1 | inactive | –
O=C(NCCOc1ccccc1)C1CCC(=O)N(CCc2ccc(Cl)cc2)C1 (centres undefined) | inconclusive [inhibitor, single point] | –
O=S(=O)(N1CCCCC1)N1CCN(S(=O)(=O)N2CCCCC2)CC1 | inactive | –
CSc1ccccc1OCc1cc(C(=O)N(C)CCc2c(C)n[nH]c2C)no1 | inconclusive [inhibitor, single point] | –
COc1ccccc1-c1cn[nH]c1-c1ccc(OCc2ccc(F)cc2)cc1O | inconclusive [inhibitor, single point] | –
Cc1cccc(NC(=O)c2nc[nH]c2C(=O)Nc2cccc(C)c2)c1 | inconclusive [inhibitor, partial curve] | –
COc1ccc(NC(=O)c2cc(C3CCCCN3S(=O)(=O)c3cn(C)cn3)on2)c(C)c1 (centres undefined) | inactive | –
Cn1nc(C2CC2)cc1NC(=O)C1(C)CCN1C(=O)CC(c1ccccc1)c1ccccc1 (centres undefined) | active: 23.1 µM | –
COc1ccc(NC(=O)C2CCN(S(=O)(=O)c3ccc4c(c3)NC(=O)CO4)CC2)cc1 | inactive | –
O=C(Nc1ccc(OC(F)F)c(Cl)c1)C(c1ccccc1)c1ccccc1 | inconclusive [inhibitor, single point] | –
CCOC(=O)c1sc(NC(=O)c2sc(C)nc2C)nc1C | inactive | –
CSc1ccc(-c2ccc3c(c2)CC(CNC(=O)Cn2nc(C)nc2C)O3)cc1 (centres undefined) | inactive | –
COc1ccc(NC(=O)Cn2nnc(C(=O)NCc3ccccc3)c2N)c(OC)c1 | inconclusive [inhibitor, single point] | –
COc1cccc(C(c2nnnn2CCc2ccccc2)N2CCN(c3ccccc3)CC2)c1OC (centres undefined) | inconclusive [inhibitor, single point] | –
Cc1ccc(NC(=O)c2c(NC(=O)CCC(=O)O)sc3c2CCCCC3)cc1 | inconclusive [inhibitor, single point] | –
Cc1ccccc1-c1csc(C(O)c2ccc(F)cc2)n1 (centres undefined) | inconclusive [inhibitor, single point] | –
O=C(C[n+]1ccc(-c2ccccc2)cc1)Nc1ccc([N+](=O)[O-])cc1 | active: 10.3 µM | –
Cc1ccc(Sc2ccc(C(=O)N3CCOCC3)cc2[N+](=O)[O-])cc1 | inconclusive [inhibitor, single point] | –
Cc1ccc(CNC(=O)c2ccc(S(=O)(=O)N3CCCCCC3)cc2)cc1 | active: 20.6 µM | –
Oc1c(Cl)cc(Cl)cc1/C=N/c1ncn[nH]1 | inactive | –
COc1ccc(-n2c(COc3cccc4ccccc34)nnc2SCC(=O)NCc2ccco2)cc1 | inconclusive [inhibitor, single point] | –
c1ccc(COc2ccc(-c3cc4nc(NCCOc5ccccc5)ccn4n3)cc2)cc1 | active: 23.1 µM | –
O=C(CCl)Nc1ccc(N2CCCCCC2)cc1 | active: 5.17 µM | –
